# Measured values published in patent US20090156471A1, “Use of anti-amyloid agents for treating and typing pathogen infections” (RAMOT AT TEL AVIV UNIVERSITY LTD., priority 2005, published 2009).
# System: curli-expressing bacteria (E. coli XL1-Blue(pMRInv))
# Conditions: grown 12 hours at 37° C. with 0, 10, 50 and 100 μM copper; data not shown
# Description: Thus, although the binding is clearly stoichiometric the affinity for a single repeat is not high. Yet, the binding to the full-length protein may show cooperative behavior. […] This was deduced by inspecting QHGGGN peptides using electron microscopy, following 48 hours incubation with equimolar ratio of CuCl2 in 50 mM HEPES, pH 7.5 at room-temperature. […] However, this may be also due to the stress conditions imposed by the copper.
compound,measurement,value
"[Cl][Cu][Cl] [copper, CuCl2]",density of the bacterial biofilm,higher in correlative manner
